Usually IC50 stands for the concentration needed to halve the response being measured. Read a low IC50 as greater potency in that assay.

This experiment concerns the target ColQ1-CU (collagenase unit of ColQ1) (Bacillus cereus, UniProt B9J3S4). Nature of the experiment: biochemical.

Take `CC(=O)c1ccc(NC(=O)CP(=O)(O)O)cc1` [compound 26, Disodium (2-((4-acetylphenyl)amino)-2-oxoethyl)phosphonate]: 183 ± 7 µM corresponded to half-maximal inhibition (IC50).
